Source: the supplement of paper PMC8728848
This is one part of the list.

Experiments:
Assay in all cases: glycan array binding signal (z-score within array); higher = stronger binding
Settings in all cases: glycan notation: IUPAC condensed, linker removed
[1] = biological target: Neu5Ac(a2-6)Gal(b1-4)GlcNAc(b1-6)GalNAc
How it was run: (§1)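 From the Consortium for Functional Glycomics database, 3228 arrays were curated, keeping only those whose protein sequence was available. Binding is given as a within-array Z-score averaged across arrays sharing a protein sequence and across linkers. Negative Z-scores can be read as non-binding.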

[2] = biological target: Neu5Ac(a2-6)Gal(b1-4)GlcNAc(b1-6)[Gal(b1-3)GlcNAc(b1-3)]Gal(b1-4)Glc
How it was run: as §1

[3] = biological target: Neu5Ac(a2-6)Gal(b1-4)GlcNAc(b1-6)[Gal(b1-3)]GalNAc
How it was run: as §1

[4] = biological target: Neu5Ac(a2-6)Gal(b1-4)GlcNAc6S
How it was run: as §1

Neu5Ac(a2-6)GalNAc = biological target: Neu5Ac(a2-6)GalNAc
How it was run: as §1

[5] = biological target: Neu5Ac(a2-6)GalNAc(b1-4)GlcNAc
How it was run: as §1

[6] = biological target: Neu5Ac(a2-6)GalNAc(b1-4)GlcNAc6S
How it was run: as §1

[7] = biological target: Neu5Ac(a2-6)GlcNAc(b1-4)GlcNAc
How it was run: as §1

[8] = biological target: Neu5Ac(a2-6)GlcNAc(b1-4)GlcNAc(b1-4)GlcNAc
How it was run: as §1

Neu5Ac(a2-8)Neu5Ac = biological target: Neu5Ac(a2-8)Neu5Ac
How it was run: as §1

[9] = biological target: Neu5Ac(a2-8)Neu5Ac(a2-3)Gal(b1-3)GalNAc(b1-4)[Neu5Ac(a2-3)]Gal(b1-4)Glc
How it was run: as §1

[10] = biological target: Neu5Ac(a2-8)Neu5Ac(a2-3)Gal(b1-3)GalNAc(b1-4)[Neu5Ac(a2-8)Neu5Ac(a2-3)]Gal(b1-4)Glc
How it was run: as §1

[11] = biological target: Neu5Ac(a2-8)Neu5Ac(a2-3)Gal(b1-4)Glc
How it was run: as §1

[12] = biological target: Neu5Ac(a2-8)Neu5Ac(a2-3)Gal(b1-4)GlcNAc
How it was run: as §1

[13] = biological target: Neu5Ac(a2-8)Neu5Ac(a2-3)[Gal(b1-3)GalNAc(b1-4)]Gal(b1-4)Glc
How it was run: as §1

[14] = biological target: Neu5Ac(a2-8)Neu5Ac(a2-3)[GalNAc(b1-4)]Gal(b1-4)Glc
How it was run: as §1

[15] = biological target: Neu5Ac(a2-8)Neu5Ac(a2-8)Neu5Ac
How it was run: as §1

[16] = biological target: Neu5Ac(a2-8)Neu5Ac(a2-8)Neu5Ac(a2-3)Gal(b1-4)Glc
How it was run: as §1

[17] = biological target: Neu5Ac(a2-8)Neu5Ac(a2-8)Neu5Ac(a2-3)[Gal(b1-3)GalNAc(b1-4)]Gal(b1-4)Glc
How it was run: as §1

[18] = biological target: Neu5Ac(a2-8)Neu5Ac(a2-8)Neu5Ac(a2-3)[GalNAc(b1-4)]Gal(b1-4)Glc
How it was run: as §1

[19] = biological target: Neu5Ac(a2-8)Neu5Ac(a2-8)Neu5Ac(a2-8)Neu5Ac(a2-3)[GalNAc(b1-4)]Gal(b1-4)Glc
How it was run: as §1

[20] = biological target: Neu5Ac(a2-8)Neu5Gc(a2-3)Gal(b1-4)GlcNAc
How it was run: as §1

[21] = biological target: Neu5Ac(b2-6)Gal(b1-4)GlcNAc
How it was run: as §1

Neu5Ac(b2-6)GalNAc = biological target: Neu5Ac(b2-6)GalNAc
How it was run: as §1

[22] = biological target: Neu5Ac9Ac(a2-3)Gal(b1-3)GlcNAc
How it was run: as §1

[23] = biological target: Neu5Ac9Ac(a2-3)Gal(b1-4)GlcNAc
How it was run: as §1

[24] = biological target: Neu5Ac9Ac(a2-6)Gal(b1-4)GlcNAc
How it was run: as §1

[25] = biological target: Neu5Gc(a2-3)Gal(b1-3)GlcNAc
How it was run: as §1

[26] = biological target: Neu5Gc(a2-3)Gal(b1-3)[Fuc(a1-4)]GlcNAc
How it was run: as §1

Neu5Gc(a2-3)Gal(b1-4)Glc = biological target: Neu5Gc(a2-3)Gal(b1-4)Glc
How it was run: as §1

[27] = biological target: Neu5Gc(a2-3)Gal(b1-4)GlcNAc
How it was run: as §1

[28] = biological target: Neu5Gc(a2-3)Gal(b1-4)GlcNAc(b1-3)Gal(b1-4)GlcNAc(b1-2)Man(a1-3)[Neu5Gc(a2-3)Gal(b1-4)GlcNAc(b1-3)Gal(b1-4)GlcNAc(b1-2)Man(a1-6)]Man(b1-4)GlcNAc(b1-4)GlcNAc
How it was run: as §1

[29] = biological target: Neu5Gc(a2-3)Gal(b1-4)[Fuc(a1-3)]GlcNAc
How it was run: as §1

[30] = biological target: Neu5Gc(a2-3)Gal(b1-4)[Fuc(a1-4)]GlcNAc
How it was run: as §1

[31] = biological target: Neu5Gc(a2-6)Gal(b1-4)GlcNAc
How it was run: as §1

Neu5Gc(a2-6)GalNAc = biological target: Neu5Gc(a2-6)GalNAc
How it was run: as §1

[32] = biological target: Neu5Gc(a2-8)Neu5Ac(a2-3)Gal(b1-4)GlcNAc
How it was run: as §1

[33] = biological target: Neu5Gc(a2-8)Neu5Gc(a2-3)Gal(b1-4)GlcNAc
How it was run: as §1

B1: Epa12 (Candida glabrata) (protein)
chain: MGSSHHHHHHSSGLVPRGSHMLEPDNSLQIFDSFLSNPSKYPLGCSPKITNPKKGLSMELYSYPYRKKGSHPCWDPAYLDPNFPRVGYKKNKLIARVDGVSGDINFNFHPKRQCTPIADYLPPNFNYNEPITTTNFTMLLYGYFKPKVTGLHTFDISADDLLFMNFGAGNAFDCCRRDSTADTFGNYVAWAIWGRRIVRNKLTVRLDKGIYYPLRLFFNNRDYYGQMRLTFKTEHGSERITDFSDYFFSVDDTSEGCPGLITYESECADVKSSTVLETDYITIQAEKE
- glycan array binding signal (z-score) [1]: -0.256
- glycan array binding signal (z-score) [2]: -0.131
- glycan array binding signal (z-score) [3]: -0.107
- glycan array binding signal (z-score) [4]: -0.234
- glycan array binding signal (z-score) (Neu5Ac(a2-6)GalNAc): -0.328
- glycan array binding signal (z-score) [5]: -0.339
- glycan array binding signal (z-score) [6]: -0.36
- glycan array binding signal (z-score) [7]: -0.331
- glycan array binding signal (z-score) [8]: -0.447
- glycan array binding signal (z-score) (Neu5Ac(a2-8)Neu5Ac): -0.362
- glycan array binding signal (z-score) [9]: -0.255
- glycan array binding signal (z-score) [10]: 0.219
- glycan array binding signal (z-score) [11]: -0.253
- glycan array binding signal (z-score) [12]: -0.285
- glycan array binding signal (z-score) [13]: -0.268
- glycan array binding signal (z-score) [14]: -0.25
- glycan array binding signal (z-score) [15]: -0.28
- glycan array binding signal (z-score) [16]: -0.406
- glycan array binding signal (z-score) [17]: -0.408
- glycan array binding signal (z-score) [18]: -0.232
- glycan array binding signal (z-score) [19]: -0.258
- glycan array binding signal (z-score) [20]: -0.413
- glycan array binding signal (z-score) [21]: -0.303
- glycan array binding signal (z-score) (Neu5Ac(b2-6)GalNAc): -0.396
- glycan array binding signal (z-score) [22]: -0.298
- glycan array binding signal (z-score) [23]: -0.376
- glycan array binding signal (z-score) [24]: -0.252
- glycan array binding signal (z-score) [25]: -0.286
- glycan array binding signal (z-score) [26]: -0.309
- glycan array binding signal (z-score) (Neu5Gc(a2-3)Gal(b1-4)Glc): -0.277
- glycan array binding signal (z-score) [27]: -0.288
- glycan array binding signal (z-score) [28]: -0.366
- glycan array binding signal (z-score) [29]: -0.349
- glycan array binding signal (z-score) [30]: -0.243
- glycan array binding signal (z-score) [31]: -0.175
- glycan array binding signal (z-score) (Neu5Gc(a2-6)GalNAc): -0.309
- glycan array binding signal (z-score) [32]: -0.358
- glycan array binding signal (z-score) [33]: -0.374
